Data from the supplement of paper PMC3334620.
Whole data set: some 33,000 sequences, median “E-score (-0.5 to 0.5)” near -0.043, cut for the highest 2% near 0.37. The list shows a part of the results.

molecular target: T1, Upc2 (UniProt Q12151); assay: PBM E-score (8-mer binding enrichment) (E-score (-0.5 to 0.5)); higher = stronger / more preferred TF binding; most listed sequences are background and not binding sites; conditions: protein concentration: 200 nM; construct: GST-full length
T1 sequence: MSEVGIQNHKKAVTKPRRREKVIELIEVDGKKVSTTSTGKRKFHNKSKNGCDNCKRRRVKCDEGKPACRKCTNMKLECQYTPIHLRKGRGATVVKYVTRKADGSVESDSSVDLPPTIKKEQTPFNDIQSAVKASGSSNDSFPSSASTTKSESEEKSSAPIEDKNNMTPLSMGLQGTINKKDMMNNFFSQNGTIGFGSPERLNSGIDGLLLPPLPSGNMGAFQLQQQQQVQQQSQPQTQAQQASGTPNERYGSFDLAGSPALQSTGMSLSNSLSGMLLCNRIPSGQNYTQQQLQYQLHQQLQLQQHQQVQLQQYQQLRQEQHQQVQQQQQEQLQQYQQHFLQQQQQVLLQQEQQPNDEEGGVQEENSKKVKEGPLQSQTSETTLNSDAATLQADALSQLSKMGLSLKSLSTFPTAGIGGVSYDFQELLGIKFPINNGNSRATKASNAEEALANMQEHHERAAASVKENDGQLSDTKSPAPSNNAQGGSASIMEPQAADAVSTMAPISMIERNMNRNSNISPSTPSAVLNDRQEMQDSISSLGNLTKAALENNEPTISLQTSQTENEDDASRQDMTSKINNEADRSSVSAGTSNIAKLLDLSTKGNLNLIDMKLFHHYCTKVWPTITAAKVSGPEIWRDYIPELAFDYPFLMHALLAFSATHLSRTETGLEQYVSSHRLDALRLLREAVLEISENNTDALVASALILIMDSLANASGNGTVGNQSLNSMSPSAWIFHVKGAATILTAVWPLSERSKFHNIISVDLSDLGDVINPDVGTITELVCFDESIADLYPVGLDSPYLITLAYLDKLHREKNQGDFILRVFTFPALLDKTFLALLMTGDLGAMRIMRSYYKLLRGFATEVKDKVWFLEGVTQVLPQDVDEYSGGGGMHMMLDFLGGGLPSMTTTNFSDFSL
How it was run: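 For each ungapped eight-base word taken together with its reverse complement, the Universal PBM Analysis Suite assigned an E-score. Binding data came from GST-tagged yeast transcription factors, applied at about 100-200 nM, on universal all-10-mer Agilent arrays made double-stranded by primer extension. Fluorescent anti-GST marked bound protein, and scans were normalised with masliner.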

Row | Sequence | PBM E-score
1 | ATCCGGAA | -0.0544
2 | AACGACAC | 0.428
3 | GTAGGAAC | 0.13
4 | GAATACCA | -0.116
5 | AAAGGGGC | -0.127
6 | AAGCCGGG | -0.0356
7 | TCCCTACA | -0.0746
8 | CGTTGTGA | 0.143
9 | CCTCTCAC | -0.274
10 | CACAGAAA | 0.0367
11 | CCCAAGTC | -0.187
12 | GACTATGA | -0.0954
13 | CGGCATAA | 0.114
14 | CTCAGGGC | -0.198
15 | CTGCCTCC | -0.147
16 | TTAACCAA | -0.033
17 | GAAACGCA | -0.059
18 | ACCTTGGC | -0.142
19 | CAAACATG | -0.124
20 | CTTGGTTC | 0.103
21 | ACGTCGTC | 0.206
22 | CACAATAC | 0.0113
23 | AGCCAAAA | -0.178
24 | AGTTCGTA | 0.439
25 | TGCGTCCA | -0.17

Row | Sequence | PBM E-score
26 | CTTCCGCA | 0.0157
27 | ACATATCA | -0.0715
28 | CTGGAAAG | -0.308
29 | CGAGTGGC | 0.104
30 | CTATGGAA | -0.161
31 | ATGCATCC | -0.132
32 | GAATCCTA | -0.0559
33 | CCTGCACA | -0.257
34 | ATGCATAA | -0.194
35 | CCCGGTAC | 0.0958
36 | CTTGGTGC | -0.204
37 | CATTCATA | -0.0226
38 | ACCCTAAG | -0.108
39 | AAAGCCTA | -0.0945
40 | TCTCTTCA | -0.104
41 | ATGTGTTA | 0.132
42 | CTCCCCAG | -0.176
43 | TAGGTGAA | -0.00337
44 | CTAGGGCA | -0.371
45 | AGTCTCGC | 0.145
46 | AACGGCAA | 0.148
47 | GCGACCAA | 0.0389
48 | CGCGTAAA | 0.354
49 | CAACACTA | 0.00608
50 | AACACATT | 0.0513

Row | Sequence | PBM E-score
51 | AGTTGTCG | 0.0355
52 | GAAATGGA | -0.243
53 | ACTATGCT | 0.0298
54 | AACTCGGG | 0.0291
55 | AGATGTCG | 0.119
56 | ACCCGCGA | -0.0601
57 | CATGGTCG | 0.0506
58 | GGCAACCC | -0.152
59 | AGGCGGCA | -0.182
60 | CCTAAGAC | -0.0917
61 | GAGCAGAA | 0.0585
62 | CGCGCCTA | 0.212
63 | TGAGTAAA | -0.0329
64 | ACTTGGAT | 0.0694
65 | GGATAGGA | 0.0219
66 | ACAAGGCG | -0.0278
67 | TCGCGCAA | 0.0965
68 | TTAAATAA | -0.00824
69 | CGTGGAGC | -0.0916
70 | CAGGAATG | -0.204
71 | ATCCGTAA | 0.284
72 | AAATTACC | 0.138
73 | AGAGTAGC | -0.15
74 | GAGAAAAC | 0.0251
75 | AAAAAAAT | 0.0605

Row | Sequence | PBM E-score
76 | TGGTAACA | 0.0759
77 | GAAAACGA | 0.263
78 | CTCAGAGC | -0.295
79 | ATAACCGG | -0.0223
80 | AGACTATG | -0.0737
81 | ATGAGTTC | -0.176
82 | GTATTATA | 0.168
83 | AATATAGT | -0.0398
84 | ATATGAAA | 0.0399
85 | ATAATTGG | -0.0531
86 | TATCAGAA | 0.06
87 | TCCGACCA | 0.0761
88 | CTGCAGTC | -0.0683
89 | AGAGGCTC | -0.0436
90 | CATTAATG | -0.00024
91 | CCACAGTA | 0.0359
92 | ACGGGCAG | 0.0778
93 | ATTTGTTA | 0.0411
94 | GAGATTAA | -0.0122
95 | CGAGCGGA | 0.294
96 | CAGTAATA | 0.088
97 | CAATGCAC | -0.119
98 | GGGACTAC | -0.126
99 | AATATGCC | -0.171
100 | CTTGGTAC | 0.218

Row | Sequence | PBM E-score
101 | CTTTTCAC | -0.0852
102 | CTGATTAA | 0.0129
103 | GACGCAGA | 0.122
104 | GAGTTAAA | 0.0132
105 | GGAAGGAC | -0.163
106 | CATAGATG | -0.237
107 | GGAGAGCA | -0.135
108 | GAGGGCGC | -0.0991
109 | ACCCACAC | 0.11
110 | GGGCGCTA | -0.158
111 | ATCCCAAG | -0.27
112 | CGTCCAAG | -0.236
113 | ATCTTATC | 0.0902
114 | TGTCTAAA | 0.14
115 | CCTGGGTC | -0.293
116 | AGTTGATG | -0.0293
117 | AAGTACAG | -0.174
118 | ATCTGAAG | -0.202
119 | AATCGTTC | 0.396
120 | AAATTGCT | 0.0818
121 | CGCAGCAA | -0.211
122 | AAAATCCA | 0.0293
123 | GACTACCC | -0.0524
124 | AATAGGCG | -0.106
125 | AACTCTGT | -0.12

Row | Sequence | PBM E-score
126 | CGCCTACC | -0.0354
127 | AGACGTGC | 0.0541
128 | GCGTAAGA | 0.217
129 | AGCCTGTA | -0.143
130 | AACGGAGG | 0.224
131 | AGCATTGC | 0.0722
132 | GGGTACAA | -0.0246
133 | CGGCAAAG | -0.133
134 | ACGTTTCA | 0.116
135 | CGACCGGC | -0.0744
136 | ACCATCAC | -0.0129
137 | GCGAACTA | 0.0498
138 | AGACTGCT | -0.0699
139 | AGATCTGC | -0.15
140 | GCGTTCCC | 0.0703
141 | AAACATCT | 0.03
142 | GGTATCCA | -0.0137
143 | GTTGGTCA | 0.0287
144 | AACTAGCA | -0.134
145 | ACATCCTG | -0.0536
146 | AGTAATCG | 0.13
147 | AATCTGTA | -0.0463
148 | ATCACATC | -0.125
149 | GTCCTACA | 0.0243
150 | ACTTGATC | -0.0744

Row | Sequence | PBM E-score
151 | GGACGTTA | -0.0764
152 | AGCATAAG | -0.205
153 | CATTTAAC | 0.0774
154 | CTCGCCAC | -0.0753
155 | CCCAAGGA | -0.359
156 | GTATCGAC | 0.138
157 | ATTCACCG | -0.00469
158 | CAACGGGG | -0.0318
159 | CCGTCAAG | -0.337
160 | AACAATAA | 0.00589
161 | ATCACCAT | -0.133
162 | AAACGCCG | 0.282
163 | AGTCTAAC | -0.118
164 | ACCTCTGA | -0.16
165 | GAGAGGGC | -0.244
166 | GCAACACA | -0.116
167 | AACCATGT | -0.0813
168 | ACCGAATG | 0.147
169 | GTAGAGTA | 0.126
170 | GGTCACAA | -0.0498
171 | GACTAATC | 6e-05
172 | GTCCCAAC | -0.262
